PubChem BioAssay AID686979 (National Center for Advancing Translational Sciences (NCATS), 2013)
Among all 420,000 compounds or so, about 50,000 (12%) were called active. Inconclusive means that the source gave no clear call. Such entries were picked first, then a sample of the others. Calls come from the whole dose curve; as a rule, active = well fitted inhibition curve with a large enough effect; inconclusive = small, poorly fitted or top-dose-only effect; inactive = flat fitted curve, though single readings scatter. Potencies of inconclusive entries are left out as doubtful fits.

assay: qHTS for Inhibitors of human tyrosyl-DNA phosphodiesterase 1 (TDP1): qHTS in cells in presence of CPT; details: chicken DT40 Tdp1-/-;hTDP1 cells + 20 nM CPT, ATP luminescence, 48 h; activity change, negative = growth inhibition: at 46.2 µM (top of the series) unless noted; note: nearly all actives have a fitted effect of over 55% in size
In short: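 Chicken DT40 Tdp1-/- cells complemented with human TDP1, 400 cells/well, exposed to compounds plus 20 nM camptothecin for at least 48 h at 37 C; viability read as ATP content by CellTiter-Glo luminescence.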
% is set by controls: 0 for no effect and ±100 for the full control effect; potency is the fitted concentration of half-maximal effect; tags give direction and shape of the fitted curve.

Compound	activity change, negative = growth inhibition	Potency
C/C(=N\NC(=O)c1ccc2c(c1)OCO2)c1ccc(C(=O)O)s1	inactive: -10.8%	–
CCN(CC)S(=O)(=O)c1cccc(NC(=O)COC(=O)C2COc3ccccc3O2)c1 (stereo not given)	inactive: -9.41%	–
COC(=O)C[C@@H]1CC[C@H](NC(=O)Nc2ccc(OC)cc2)[C@@H](CO)O1	inactive: 1.92%	–
CCCn1c(SCc2nc(N)nc(N3CCCCC3)n2)nc2c1c(=O)n(C)c(=O)n2C	–	inconclusive [inhibitor, single point]
O=C(NC1CCCCC1)C(c1ccncc1)n1c(=O)c(-c2cc3ccccc3[nH]2)nc2ccccc21 (stereo not given)	–	active: 18.4 µM
CC1(c2nnnn2-c2ccc3c(c2)OCCO3)CCC(=O)N1CC(F)(F)F (stereo not given)	inactive: -20%	–
CC(=O)c1ccc(NC(=O)Nc2ccc3snnc3c2)cc1	–	active: 11.6 µM
O=C(O)c1cccc2c1C(=O)c1cc([N+](=O)[O-])ccc1-2	–	inconclusive [inhibitor, single point]
O=C(Nc1cccnc1Cl)C1=NN(c2ccccc2)C(=O)CC1	–	inconclusive [inhibitor, partial curve]
O=C1c2ccccc2C(=O)c2c1cccc2N1CCN(Cc2ccccc2)CC1	–	inconclusive [inhibitor, single point]
COc1ccccc1-c1cncnc1NCCc1cnc[nH]1	–	inconclusive [inhibitor, full curve]
COc1cccc(-c2nc(S(=O)(=O)c3ccc(C)cc3)c(N3CCCCCC3)o2)c1	–	active: 23.1 µM
O=C1OCCN1C(=O)[C@H]1[C@H](c2ccc(F)cc2)C(c2cccc(Cl)c2)=NN1c1ccccc1	–	inconclusive [inhibitor, single point]
CCOC(=O)c1ccc(N2C(=O)c3n[nH]c(-c4ccco4)c3C2c2ccc(OC)cc2OC)cc1 (stereo not given)	–	active: 23.1 µM
CCSc1ncc(/C=N/Nc2ccccc2)n1C	–	active: 23.1 µM
Cc1cccc(C)c1-n1ncc(C(=O)NCCCN2CCCCC2)c1C1CCN(C(=O)OC(C)(C)C)CC1	–	inconclusive [inhibitor, single point]
O=C1c2ccccc2C(=O)N1c1cccc(O)c1	inactive: -1.45%	–
N#Cc1ccc(/C=C/C(=O)c2ccc3c(c2)OCO3)cc1	–	active: 16.4 µM
O=C(CN1CCN(c2ccccc2Cl)CC1)NC1CCCc2ccccc21 (stereo not given)	–	inconclusive [inhibitor, single point]
COc1cccc(-c2nc(CS(=O)(=O)CC(=O)NCc3ccc4c(c3)OCO4)c(C)o2)c1	–	inconclusive [inhibitor, single point]
Cc1c(OC(C)C(=O)N2C[C@H]3C[C@@H](C2)c2cccc(=O)n2C3)ccc2c3c(c(=O)oc12)CCCC3 (stereo not given in full)	–	inconclusive [inhibitor, single point]
O=C(Cn1cnc2ccccc21)Nc1ccc(F)c(F)c1	–	inconclusive [inhibitor, single point]
O=C(O)c1ccc([N+](=O)[O-])cc1Sc1ccsc1	inactive: -11.6%	–
O=C(O)c1[nH]c2ccccc2c1C(c1c(F)cccc1Cl)c1c(C(=O)O)[nH]c2ccccc12	inactive: 9.85%	–

Compound	activity change, negative = growth inhibition	Potency
COc1cc(OC)c(NC(=O)CCc2ccccc2)cc1Cl	inactive: -6.15%	–
COc1ccc(/C(C)=N/OCC(=O)N=Nc2c(O)[nH]c3ccc(Br)cc23)cc1	–	inconclusive [inhibitor, single point]
COc1ccc(/C=C2/C(=O)ON=C2C)cc1Cl	–	inconclusive [inhibitor, single point]
O=[N+]([O-])c1ccc(/C=C/C2=NN(c3ccccc3)C(c3ccco3)C2)cc1 (stereo not given)	–	inconclusive [inhibitor, partial curve]
COc1ccc(C2CC(C(F)(F)F)n3nc(C(=O)NCc4c(C)nn(C)c4C)c(Cl)c3N2)cc1 (stereo not given)	–	active: 1.3 µM
CN(Cc1ccccc1)C(=O)c1ccc(Nc2nc(C(N)Cc3ccc(C(F)(F)F)cc3)cs2)nc1 (stereo not given)	–	active: 11.6 µM
C[C@]12c3[nH]c4ccccc4c3CCN1C(=O)C(CC(=O)NCc1cccc(C(F)(F)F)c1)C[C@@H]2C(=O)N1CCCCC1 (stereo not given in full)	–	active: 20.6 µM
C=CCc1cc(Cl)ccc1OCCOCCNC(C)(C)C	–	inconclusive [inhibitor, single point]
Cc1cc(C(=O)CCC(=O)N(C)CC2COc3ccccc3O2)c(C)s1 (stereo not given)	–	inconclusive [inhibitor, single point]
CC(=O)c1cccc(-c2cnc3c(NC=O)cc(-c4ccc(F)cc4)cn23)c1	–	active: 16.4 µM
CC(/C=C1\SC(=S)N(NC(=O)c2ccncc2)C1=O)=C\c1ccccc1	inactive: -1.12%	–
C[C@H](NC(=O)c1nc[nH]c1C(=O)NC1CCN(C(=O)OC(C)(C)C)CC1)C(=O)OC(C)(C)C	–	active: 18.4 µM
CC(=O)Nc1ccc(-c2cc(C(=O)O)c3ccc(C)cc3n2)cc1	inactive: 2.02%	–
CCOC(=O)c1ccc(S(=O)(=O)N2CCN(C/C=C/c3ccccc3)CC2)cc1	–	inconclusive [inhibitor, single point]
CCCc1cc(=O)oc2c(C)c(OCC(=O)c3ccc(N4CCCC4)cc3)ccc12	–	inconclusive [inhibitor, single point]
CC(=O)c1cccc(N(CC(=O)NC2CCCCC2)C(=O)Cn2nnc(-c3ccccc3)n2)c1	inactive: -4.28%	–
COCc1c(C(=O)Nc2ccc(Cl)cc2F)oc2ccccc12	inactive: -10.3%	–
O=C(NCc1ccco1)C1CC(c2cccc([N+](=O)[O-])c2)=NO1 (stereo not given)	–	inconclusive [inhibitor, single point]
CCOC(=O)c1ccc(NC(=O)CN(Cc2ccc(C)cc2)S(=O)(=O)c2ccc(C)cc2)cc1	–	active: 13 µM
CCc1nnc2n1N=C(c1ccc([N+](=O)[O-])cc1)CS2	inactive: 0.0416%	–
CC(C)Oc1ccc(CCc2nnc(SC(C)C(=O)O)n2-c2ccccc2)cc1 (stereo not given)	inactive: 2.92%	–
CC(C)=CCC/C(C)=C/CNC(=O)C[C@H]1C[C@H](C(=O)N2CCOCC2)[C@@]2(CCC3CCCC3)c3[nH]c4cc(-c5ccco5)ccc4c3CCN2C1=O	–	active: 18.4 µM
COc1ccccc1CNC(=O)CSc1nc(-c2ccccc2)cn1N	–	inconclusive [inhibitor, single point]
O=C(COc1cccc(Br)c1)Nc1ccc(N2CCOCC2)cc1N1CCOCC1	–	active: 18.4 µM

Compound	activity change, negative = growth inhibition	Potency
COc1cc(C(=O)Nc2cccc(S(=O)(=O)NCc3ccco3)c2)cc(OC)c1OC	–	inconclusive [inhibitor, single point]
CCCCNC(=O)C1(C)CCN1Cc1cc(C)ccc1C (stereo not given)	–	active: 23.1 µM
COCCN=C1N[C@@H](c2cccc(C(F)(F)F)c2)C(C(=O)OC)=C(C)N1Cc1ccccc1	–	active: 13 µM
CN(C)CCCNC(=O)c1ccc(-c2ccccc2)cc1	–	inconclusive [inhibitor, single point]
CC(C)Oc1ccc(CNC(=O)CN2C(=O)CCn3nc(-c4cn(C)c5ccccc45)cc32)cc1	–	inconclusive [inhibitor, single point]
CCc1c(Cl)nc(N)nc1Nc1ccccc1C	–	inconclusive [inhibitor, single point]
O=C(c1cc(C(=O)N2CCOCC2)c2nc3ccccc3n2c1)c1ccccc1O	–	inconclusive [inhibitor, partial curve]
CCOc1nnnc2c1sc1nc(N3CCOCC3)c3c(c12)CCCC3	–	inconclusive [inhibitor, single point]
CCc1ccc2[nH]c(=O)c(CN(Cc3ccco3)C(=S)NCC3CCCO3)cc2c1 (stereo not given)	–	inconclusive [inhibitor, single point]
CCOc1ccc2[nH]c(=O)c(C(c3nnnn3CC3CCCO3)N3CCc4ccccc4C3)cc2c1 (stereo not given)	–	active: 16.4 µM
CC(C)Sc1nc(SCC(=O)NCc2ccco2)c2c3c(sc2n1)COC(C)(C)C3	–	inconclusive [inhibitor, single point]
O=C1N[C@@H](Cc2ccccc2)COC(=O)[C@H](Cc2ccc(F)cc2)C/C=C\C[C@H]1CC(=O)N(CCO)Cc1ccccc1	–	active: 20.6 µM
Fc1ccccc1N1CCN(Cc2nnc(-c3ccc4c(c3)OCO4)o2)CC1	–	inconclusive [inhibitor, single point]
N#CC1=C(SCc2ccc(C#N)cc2)N=C(N)C(c2nc(-c3ccccc3)cs2)C12CCCCC2 (stereo not given)	–	inconclusive [inhibitor, single point]
O=C(c1cccc([N+](=O)[O-])c1)N1CCCN(C(=O)c2cccc([N+](=O)[O-])c2)CC1	inactive: 26.2%	–
CCNC(=O)c1ccc(NS(=O)(=O)c2ccccc2)cc1	inactive: -8.43%	–
COc1ccc(CC(=O)N(C)Cc2ccc(OC(F)F)cc2)cc1S(=O)(=O)N1CCOCC1	inactive: 0.685%	–
CCOP(=O)(OCC)c1nc(/C=C/c2ccccc2)oc1NCc1ccccc1	–	inconclusive [inhibitor, single point]
COc1cccc(CNC(=O)c2ccc(CS(=O)Cc3ccccc3Cl)o2)c1 (stereo not given)	–	inconclusive [inhibitor, single point]
COC(=O)c1ccc(NC(=O)CSc2n[nH]c(-c3ccccc3)n2)cc1	–	inconclusive [inhibitor, single point]
O=C(Cn1ccc(NC(=O)OCc2ccccc2)nc1=O)NCCN1CCOCC1	inactive: -13.7%	–
CCOc1ccc(C(C(=O)NCC2CCCO2)N(Cc2cccs2)C(=O)c2snc(C(N)=O)c2N)cc1 (stereo not given)	–	active: 23.1 µM
